Assay results: US11498899B2, “Nitrone herbicides” (FMC Corporation, priority 2016, dated 2022)

Tested on: sedge, umbrella (small-flower umbrella sedge, Cyperus difformis)
Test: Test B flooded paddy test, visual rating 0-100
Details: Flood, 250 g ai/ha, applied to paddy water, rated after 13 to 15 days

| Compound | Sedge, Umbrella plant response rating (0 to 100 scale) |
| --- | --- |
| CC1=[N+]([O-])C(C(=O)Nc2cccc(F)c2F)C(c2ccc(C(F)(F)F)c(Cl)c2)C1 (racemic) [Compound 102] | 0 |
| CC1=[N+]([O-])C(C(=O)Nc2cccc(F)c2F)C(c2cc(C)cc(F)c2)C1 (racemic) [Compound 103] | 0 |
| CC1=[N+]([O-])C(C(=O)Nc2cccc(F)c2F)C(c2ccc(Cl)c(C(F)(F)F)c2)C1 (racemic) [Compound 104] | 0 |
| CC1=[N+]([O-])C(C(=O)Nc2cccc(F)c2F)C(c2cccc(C3OCCO3)c2)C1 (racemic) [Compound 105] | 0 |
| CC1=[N+]([O-])C(C(=O)Nc2cccc(F)c2F)C(c2cccc(C(F)(F)F)c2C)C1 (racemic) [Compound 106] | 0 |
| CC1=[N+]([O-])C(C(=O)Nc2cccc(F)c2F)C(c2ccc(Cl)c(F)c2)C1 (racemic) [Compound 107] | 0 |
| CC1=[N+]([O-])C(C(=O)Nc2cccc(F)c2F)C(c2cc(C)cc(CF)c2)C1 (racemic) [Compound 108] | 0 |
| CCc1cc(CC)cc(C2CC(C)=[N+]([O-])C2C(=O)Nc2cccc(F)c2F)c1 (racemic) [Compound 109] | 0 |
| CC1=[N+]([O-])C(C(=O)Nc2cccc(F)c2F)C(c2cc(C(F)(F)F)cc(C(F)(F)F)c2)C1 (racemic) [Compound 110] | 0 |
| CC1=[N+]([O-])C(C(=O)Nc2cccc(F)c2F)C(c2cc(C)c(F)c(C)c2)C1 (racemic) [Compound 111] | 0 |
| CC1=[N+]([O-])C(C(=O)Nc2cccc(F)c2F)C(c2cc(C)cc(C)c2)C1 (racemic) [Compound 112] | 0 |
| CC1=[N+]([O-])C(C(=O)Nc2cccc(F)c2F)C(c2ccc(OC(F)(F)F)c(F)c2)C1 (racemic) [Compound 113] | 0 |
| CC1=[N+]([O-])C(C(=O)Nc2cccc(F)c2F)C(c2cc(F)c(C(F)(F)F)c(F)c2)C1 (racemic) [Compound 114] | 0 |
| CC1=[N+]([O-])C(C(=O)Nc2cccc(F)c2F)C(c2cccc(Oc3ncc(Cl)cn3)c2)C1 (racemic) [Compound 115] | 0 |
| CCOc1cc(OC)cc(C2CC(C)=[N+]([O-])C2C(=O)Nc2cccc(F)c2F)c1 (racemic) [Compound 116] | 0 |
| CC1=[N+]([O-])C(C(=O)Nc2cccc(F)c2F)C(c2cccc(Cl)c2C)C1 (racemic) [Compound 117] | 0 |
| CC1=[N+]([O-])C(C(=O)Nc2cccc(F)c2F)C(c2cccc3c2CCC3)C1 (racemic) [Compound 118] | 0 |
| CC1=[N+]([O-])C(C(=O)Nc2cccc(F)c2F)C(c2ccc(=O)n(Cc3ccc(Cl)cc3)c2)C1 (racemic) [Compound 119] | 0 |
| CCC1=[N+]([O-])C(C(=O)Nc2cccc(F)c2F)C(c2ccc(C(F)(F)F)cc2)C1 (racemic) [Compound 120] | 0 |
| CC(C)C1=[N+]([O-])C(C(=O)Nc2cccc(F)c2F)C(c2ccc(C(F)(F)F)cc2)C1 (racemic) [Compound 122] | 0 |
| CC1=[N+]([O-])[C@@H](C(=O)Nc2cccc(F)c2F)[C@H](c2ccc(C(F)(F)F)cc2)C1 (relative stereo) [Compound 2, trans-N-(2,3-difluorophenyl)-3,4-dihydro-5-methyl-3-[4-(trifluoromethyl)phenyl]-2H-pyrrole-2-carboxamide 1-oxide] | 0 |
| CC1=[N+]([O-])[C@@H](C(=O)Nc2cccc(F)c2F)[C@H](c2ccc(Cl)cc2)C1 (relative stereo) [Compound 5, trans-3-(4-chlorophenyl)-N-(2,3-difluorophenyl)-3,4-dihydro-5-methyl-2H-pyrrole-2-carboxamide 1-oxide] | 0 |
| CC1=[N+]([O-])[C@H](C(=O)Nc2cccc(F)c2F)[C@@H](c2ccc(C)cc2)C1 (relative stereo) [Compound 6, rel-(2S,3R)—N-(2,3-Difluorophenyl)-3,4-dihydro-5-methyl-3-(4-methylphenyl)-2H-pyrrole-2-carboxamide 1-oxide] | 0 |
| CC1=[N+]([O-])[C@H](C(=O)Nc2cccc(F)c2F)[C@@H](c2ccc3c(c2)OC(F)(F)O3)C1 (relative stereo) [Compound 25, rel-(2S,3R)-3-(2,2-Difluoro-1,3-benzodioxol-5-yl)-N-(2,3-difluorophenyl)-3,4-dihydro-5-methyl-2H-pyrrole-2-carboxamide 1-oxide] | 0 |

| Compound | Sedge, Umbrella plant response rating (0 to 100 scale) |
| --- | --- |
| CC1=[N+]([O-])[C@@H](C(=O)Nc2ccccc2F)[C@H](c2ccc(C(F)(F)F)cc2)C1 (relative stereo) [Compound 26, trans-N-(2-fluorophenyl)-3,4-dihydro-5-methyl-3-[4-(trifluoromethyl)phenyl]-2H-pyrrole-2-carboxamide 1-oxide] | 0 |
| CC1=[N+]([O-])[C@H](C(=O)Nc2ccc(F)nc2F)[C@@H](c2ccc(C(F)(F)F)cc2)C1 (relative stereo) [Compound 37, rel-(2S,3R)—N-(2,6-Difluoro-3-pyridinyl)-3,4-dihydro-5-methyl-3-[4-(trifluoromethyl)phenyl]-2H-pyrrole-2-carboxamide 1-oxide] | 0 |
| CC1=[N+]([O-])[C@H](C(=O)Nc2cccc(F)c2F)[C@@H](c2ccc(C(F)(F)F)c(F)c2)C1 (relative stereo) [Compound 61, rel-(2S,3R)—N-(2,3-Difluorophenyl)-3-[3-fluoro-4-(trifluoromethyl)phenyl]-3,4-dihydro-5-methyl-2H-pyrrole-2-carboxamide 1-oxide] | 0 |
| CC1=[N+]([O-])[C@H](C(=O)Nc2cccc(F)c2F)[C@@H](c2ccc(C(F)F)cc2)C1 (relative stereo) [Compound 93, rel-(2S,3R)-3-(4-Difluoromethyl)phenyl)-N-(2,3-difluorophenyl) 3,4-dihydro-5-methyl-2H-pyrrole-2-carboxamide 1-oxide] | 0 |
| CC1=[N+]([O-])[C@H](C(=O)Nc2cccc(F)c2F)[C@@H](c2ccc(C(F)(F)F)cc2)C1 [Compound 30, (2S,3R)—N-(2,3-difluorophenyl)-3,4-dihydro-5-methyl-3-[4-(trifluoromethyl)phenyl]-2H-pyrrole-2-carboxamide 1-oxide] | 0 |
| CC1=[N+]([O-])[C@@H](C(=O)Nc2cccc(F)c2F)[C@H](c2ccc(F)c(F)c2)C1 [Compound 39] | 0 |
| CC1=[N+]([O-])[C@H](C(=O)Nc2cccc(F)c2F)[C@@H](c2ccc(Cl)cc2)C1 [Compound 40, (2S,3R)-3-(4-chlorophenyl)-N-(2,3-difluorophenyl)-3,4-dihydro-5-methyl-2H-pyrrole-2-carboxamide 1-oxide] | 0 |
| CC1=[N+]([O-])[C@H](C(=O)Nc2cccc(F)c2F)[C@@H](c2ccc(C)cc2)C1 [Compound 42, (2S,3R)—N-(2,3-Difluorophenyl)-3,4-dihydro-5-methyl-3-(4-methylphenyl)-2H-pyrrole-2-carboxamide 1-oxide] | 0 |
| CC1=[N+]([O-])[C@@H](C(=O)Nc2cccc(F)c2F)[C@H](c2cccc(C(F)(F)F)c2)C1 [Compound 45] | 0 |
| CC1=[N+]([O-])[C@H](C(=O)Nc2cccc(F)c2F)[C@@H](c2ccc(F)c(OC(F)(F)C(F)F)c2)C1 [Compound 54, (2S,3R)—N-(2,3-Difluorophenyl)-3-[4-fluoro-3-(1,1,2,2-tetrafluoroethyoxy)phenyl]-3,4-dihydro-5-methyl-2H-pyrrole-2-carboxamide 1-oxide] | 0 |
| CC1=[N+]([O-])[C@@H](C(=O)Nc2cccc(F)c2F)[C@H](c2cccc(OC(C)C)c2)C1 [Compound 55] | 0 |
| CC1=[N+]([O-])[C@@H](C(=O)Nc2cccc(F)c2F)[C@H](c2cccc(OC(C)(C)C)c2)C1 [Compound 69] | 0 |
| CC1=[N+]([O-])[C@@H](C(=O)Nc2cccc(F)c2F)[C@H](c2cccc(Oc3ncc(F)cc3F)c2)C1 [Compound 70] | 0 |
| CC1=[N+]([O-])[C@@H](C(=O)Nc2cccc(F)c2F)[C@H](c2cccc(Oc3ccc(F)cn3)c2)C1 [Compound 84] | 0 |
| CC1=[N+]([O-])C(C(=O)Nc2cccc(F)c2F)C(c2cccc(Cl)n2)C1 (centres unmarked) [Compound 89] | 0 |
| CC1=[N+]([O-])C(C(=O)Nc2cccc(F)c2F)C(c2cccc(C(F)(F)F)n2)C1 (centres unmarked) [Compound 90] | 0 |
| COc1cc(C)cc(C2CC(C)=[N+]([O-])C2C(=O)Nc2cccc(F)c2F)c1 (centres unmarked) [Compound 91] | 0 |
| CC1=[N+]([O-])C(C(=O)Nc2cccc(F)c2F)C(c2cc(C)cc(C(F)(F)F)c2)C1 (centres unmarked) [Compound 92] | 25 |
| CC1=[N+]([O-])C(C(=O)Nc2cccc(F)c2F)C(c2cc(C)cc(Cl)c2)C1 (centres unmarked) [Compound 94] | 0 |
| CC1=[N+]([O-])C(C(=O)Nc2cccc(F)c2F)C(c2cc(F)c(F)c(F)c2)C1 (centres unmarked) [Compound 95] | 0 |
| COc1cc(OC)cc(C2CC(C)=[N+]([O-])C2C(=O)Nc2cccc(F)c2F)c1 (centres unmarked) [Compound 96] | 0 |
| CC1=[N+]([O-])C(C(=O)Nc2cccc(F)c2F)C(c2ccccc2)C1 (centres unmarked) [Compound 97] | 0 |
| CC1=[N+]([O-])C(C(=O)Nc2cccc(F)c2F)C(c2cc(C(F)(F)F)ccc2C)C1 (centres unmarked) [Compound 98] | 0 |
